# Reference: PubChem BioAssay AID411 (National Center for Advancing Translational Sciences (NCATS), 2006)
# About 1,600 (2.2%) of roughly 72,000 compounds were called active. The call rests on the fitted dose curve; in most records, active means well fitted inhibition curve with a large enough effect; inconclusive means small, poorly fitted or top-dose-only effect; inactive means flat fitted curve, though single readings scatter. Only a part is listed here, and it is no random draw.
# Molecular target: Luciferin 4-monooxygenase (Photinus pyralis) (UniProt P08659)
# Test: qHTS Assay for Inhibitors of Firefly Luciferase; further: nearly all actives have a fitted effect of over 40% in size
# Conditions: purified firefly luciferase, luminescence, 8 min; series mostly up to 25.5 µM; activity change, negative = inhibition: at the top concentration
# Method: To aid in the interpretation of high-throughput screening (HTS) results derived from luciferase-based assays, we used quantitative HTS, an approach that defines the concentration-response behavior of each library sample, to profile the ATP-dependent luciferase from Photinus pyralis against more than 72 000 samples. Luciferase (PKLight, Cambrex Corporation) was assayed for its ability to generate light using ATP and luciferin as substrates. The ATP concentration in the assay (10 uM) was within the linear range of enzyme activity for the assay conditions used. See following reference for further details: [1] Auld DS, Southall NT, Jadhav A, Johnson RL, Diller DJ, Simeonov A, Austin CP, Inglese J. Characterization of chemical libraries for luciferase inhibitory activity. J Med Chem. 2008 Apr 24;51(8):2372-86. Auld DS, Zhang YQ, Southall NT, Rai G, Landsman M, Maclure J, Langevin D, Thomas CJ, Austin CP, Inglese J. A Basis for Reduced Chemical Library Inhibition of Firefly Luciferase Obtained from Directed Evolution. J. Med. Chem., 2009, 52 (5), pp 1450#1458 [3] Auld DS, Thorne N, Nguyen DT, Inglese J. A specific mechanism for nonspecific activation in reporter-gene assays. ACS Chem Biol. 2008 Aug 15;3(8):463-70. Auld DS, Thorne N, Maguire WF, Inglese J. Mechanism of PTC124 activity in cell-based luciferase assays of nonsense codon suppression. Proc Natl Acad Sci U S A. 2009 Mar 3;106(9):3585-90. Inglese J, Auld DS, Jadhav A, Johnson RL, Simeonov A, Yasgar A, Zheng W, Austin CP. Quantitative high-throughput screening: a titration-based approach that efficiently identifies biological activities in large chemical libraries. Proc Natl Acad Sci U S A. 2006 Aug 1;103(31):11473-8.
# Four uL of substrate mix (final concentration, 50 mM imidazole pH 7.2, 50 mM KCl, 7 mM MgCl2, 10 uM ATP, 0.01% Tween 20, 0.05% BSA) was dispensed into white 1536 well plates. Twenty-three nL of compound was delivered by a pin tool and 2 uL of luciferase detector mix (PKLight, Cambrex) was added. Following 8-minute incubation at ambient temperature, luminescence was measured by a ViewLux (Perkin Elmer) at 5 seconds exposure/plate.
# On the % scale 0 is the no-effect control and ±100 the full control effect; potency means the concentration at half of the fitted maximal effect.
# UniProt P08659, sequence (P08659 whole entry, looked up): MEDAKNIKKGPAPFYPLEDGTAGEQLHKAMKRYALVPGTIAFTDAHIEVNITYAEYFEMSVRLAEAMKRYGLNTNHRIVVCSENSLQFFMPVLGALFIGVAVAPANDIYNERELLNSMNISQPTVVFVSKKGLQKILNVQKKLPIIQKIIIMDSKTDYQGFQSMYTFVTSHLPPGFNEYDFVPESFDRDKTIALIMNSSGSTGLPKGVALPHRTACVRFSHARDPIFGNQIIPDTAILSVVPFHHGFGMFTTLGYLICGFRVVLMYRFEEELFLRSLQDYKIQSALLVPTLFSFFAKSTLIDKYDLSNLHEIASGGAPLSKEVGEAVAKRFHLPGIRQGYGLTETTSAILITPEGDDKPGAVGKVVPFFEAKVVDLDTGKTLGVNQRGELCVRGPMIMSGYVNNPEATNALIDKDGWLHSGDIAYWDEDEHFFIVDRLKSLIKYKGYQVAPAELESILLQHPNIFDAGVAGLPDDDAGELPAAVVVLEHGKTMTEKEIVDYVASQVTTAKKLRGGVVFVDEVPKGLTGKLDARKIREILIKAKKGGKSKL
Compound,"activity change, negative = inhibition",Potency
NNC(=O)c1ccncc1,inactive: -20.8%,–
Clc1ccc2c(c1)[C@H]1OCC[C@H]1[C@@H](c1ccco1)N2,inactive: -6.87% [at 57.1 µM],–
CC(=O)O[C@H]1C(=O)[C@]2(C)[C@H]([C@H](OC(=O)c3ccccc3)[C@]3(O)C[C@H](OC(=O)[C@H](O)[C@@H](NC(=O)c4ccccc4)c4ccccc4)C(C)=C1C3(C)C)[C@]1(OC(C)=O)CO[C@@H]1C[C@@H]2O,inactive: 0.287%,–
CCOC(=O)c1cnc(-n2nc(C)cc2C)nc1N(C)C,–,active: 12.6 µM
O=c1c(O)c(-c2cc(O)c(O)c(O)c2)oc2cc(O)cc(O)c12,–,inactive
COc1ccccc1-c1nc(-c2ccc(Br)cc2)no1,–,active: 12.6 µM
Oc1ccccc1-c1nnc(COc2ccc(Cl)cc2Cl)o1,–,active: 12.6 µM
